Data on 37 variants can be found in the supplement of paper PMC7125110.

± gives the standard error. Variants at the background level are over-represented here.

First the molecules themselves.
B1: glmS ribozyme (parent)
chain: AUAAAAGCGCCAGAACUACAGAAAUGUAGUUGACGAGGAGGAGGUUUAUCGAAUUUUCGGCGGAUGCCUCCAAA

Variants of B1 are the subject of this series. Nature of the series: self-cleavage kobs at 10000 uM GlcN6P; higher = faster cleavage; RNA array. The conditions noted are these: with glucosamine-6-phosphate. Summed up:
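kobs was derived by fitting per-tile medians to one- or two-exponential decays after normalising signals to baseline and to non-cleaving reference variants. Those signals came from barcoded ribozyme variants transcribed in situ by E. coli RNA polymerase on sequenced MiSeq chips, followed through a hybridised Cy3 probe at 37 °C and imaged over ~14 h. Glucosamine-6-phosphate (40 μM to 10 mM) in HEPES/KCl/Mg(OAc)2 buffer was flowed in. Weighted Michaelis–Menten fits across concentrations then gave kcat and KM.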
AUAAAAGCGCCAGGACUACAGAAAUGUAGUUGACGAGGAGGAGGUUCAUCGAAUUGUCGGCGGAUGCCUCCAAA [A14G U47C U56G]: the “self-cleavage kobs at 10000 uM GlcN6P” value was found to be 0.0112 ± 0.0019 s⁻¹.
With AUAAAAGCGCCAGAAAUACAGAAAUGUAGUUGACGAUGAGGAGGUUUAUCGAAUUUUCGGCGGAUGCCUCCAAA [C16A G37U], the “self-cleavage kobs at 10000 uM GlcN6P” value is below 1e-05 s⁻¹.
Under AUAAAAGCGCCAUAACUACAGAAAUGUAGUUGACGAGGAGGAGGUUUAUCGAAUUUUCGGCGCAUGUCUCCAAA [G13U G63C C67U] stands below 1e-05 s⁻¹.
For AUAAAAGCGCCAGAGUUACAGAAAUGUAGUUGACGAGGAGGAGGUUUAUCUAAUUUUCGGCGGAUGCCUCCAAA [A15G C16U G51U] the value was below 1e-05 s⁻¹; for AUAAAAGCGCCAGAACUAAAGAAAUGUAGUUGACGAGGAGGAGGUUUAUCGAAUUUUCGGCGGCUGCCUGCAAA [C19A A64C C70G], below 1e-05 s⁻¹.
Under AUAAAAGCGCCAUAACUACAGAAAUGUAGUUGACGAGGAGGAGGUUUAUCGAAUUUUCGGCGGUUGUCUUCAAA [G13U A64U C67U C70U] stands below 1e-05 s⁻¹; under AUAAAAGCGCCAGAACUACAUAAAUGUACUUGACGAGGAGGAGGUUUAUCGAAUUUUCGGCGGAUGCCUCCAAA [G21U G29C], 0.00256 ± 0.0005 s⁻¹; under AUAAAAGCGCCAGUAGUACAGAAAUGUAGUUAACGAGGAGGAGGUUUAUCGAAUUGUCGGCGGAUGCCUCCAAA [A14U C16G G32A U56G], 0.000337 ± 5e-05 s⁻¹.
For AUAAAAGCGCCAGAACUACAGAAAUGUAAUUGACGAGGAGGCGGUUUAUCGAAUUUUCGGCGGAUGCUUGCAAA [G29A A42C C68U C70G], the “self-cleavage kobs at 10000 uM GlcN6P” value was below 1e-05 s⁻¹.
Under AUAAAAGCGCCAGCACUACAGAAAUGUAGUUGACGAGGAGGAGGUUUAUAGAAUUUUCGGCGGAUGCCUCAAAA [A14C C50A C71A] stands below 1e-05 s⁻¹; under AUAAAAGCGCCAGAUCUACAGAAAUGUAGUUGACGAGGAGAAGGUUUGUCGAAUUUUCGGCGGGUGCCUCCAAA [A15U G41A A48G A64G], below 1e-05 s⁻¹; under AUAAAAGCGCCGGAAAUACAGAAAUGUAGUUGACGAGGAGGUGGUUUUUCGAUUUGUCGGCGGAUGCCUCAAAA [A12G C16A A42U A48U A53U U56G C71A], below 1e-05 s⁻¹.
For AUAAAAGCGCCGGAACUACAGAAAUGUAGUUGACGAGGAAGAGGUUUUUCGAAUUUUCGGCGGAUGCCCCCAAA [A12G G40A A48U U69C] the value was below 1e-05 s⁻¹.
For the variant AUAAAAGCGCCAGUACUACAGAAAUGUAGUUGACGACGAGGAGGUUUAUCGAAUUUUCGGCGGCUGCCUCCAAA [A14U G37C A64C], the “self-cleavage kobs at 10000 uM GlcN6P” value was below 1e-05 s⁻¹.
With AUAAAAGCGCCAGCACUACAGAAAUGUAGUUGACGAGGAGGAGGUUUAGCGAAUUUUCGGCGGAUGCCUCCAAA [A14C U49G], the “self-cleavage kobs at 10000 uM GlcN6P” value amounted to 9.07e-05 ± 1.3e-05 s⁻¹.
For AUAAAAGCGCCAGAACUACAGAAAUGUAGAUGACGAGGAGGAGAUUUAUCGAAUUUUCGGCGGAUGCGUCCAAA [U30A G44A C68G] the value was below 1e-05 s⁻¹; for AUAAAAGCGCCAUAACUACAGAAAUGUAGUUGACGAGGAAGAGGUUUAUCGAAUUUUCGGCGGAUCCCUCAAAA [G13U G40A G66C C71A], 2.79e-05 ± 1.3e-05 s⁻¹; for AUAAAAGCGCCAGAUCUACAGAAAUGUAGUUGACGAGGAGGAGGUUUAUCGUAUUUUCGACGGAUGCCUCCAAA [A15U A52U G60A], below 1e-05 s⁻¹.
Turning to AUAAAAGCGCCAGAUCUACAGAAAUGUAGUUGACGAGGAGGAGGUUUAUCGAAUUUUCGGCGGAUGGCUCAAAA [A15U C67G C71A], the “self-cleavage kobs at 10000 uM GlcN6P” value is below 1e-05 s⁻¹.
In the case of AUAAAAGCGCUAGAACUACAGAAAUGUAGUUAACGAGGAGGGGGUUUAUCGAUUUUUCGGCGGAUGCCUCCAAA [C11U G32A A42G A53U], the “self-cleavage kobs at 10000 uM GlcN6P” value was determined as 9.31e-05 ± 2.5e-05 s⁻¹.
Regarding AUAAAAGCGCCUUAACUACAGAAAUGUAGUUGACCAGGAGGAGGUUUAUCGAAUUUUCGUCGGAUGCCUCAAAA [A12U G13U G35C G60U C71A], the “self-cleavage kobs at 10000 uM GlcN6P” value was below 1e-05 s⁻¹.
For AUAAAAGCGCCAAAACUACAGAAAUGUAGUUGACGAGUAGGACGUUUAUCGAAUUUUCGGCGGAUGCCUCCAAA [G13A G38U G43C] the value was below 1e-05 s⁻¹.
On to AUAAAAGCGCCAGAAAUACAGAAAUGUAGUUGACGAGGAGGAGGUUCAUCGAAUUUUCUGCGGAUGCCUCCAAA [C16A U47C G59U], for which the “self-cleavage kobs at 10000 uM GlcN6P” value is below 1e-05 s⁻¹.
Under AUAAAAGCGCCAGUACUACAGAAAUGUAGUUGACGAGGCGGAGGUUUAUCGAAUUUUCGGCGGACGCCUCCAAA [A14U A39C U65C] stands 6.04e-05 ± 1.6e-05 s⁻¹; under AUAAAAGCGCCAGAAAUACAGAAAUGUAGUUGACGAGGAGGAGGUCUAUCGAAUCUUCGGCGGAUGCCUCCAAA [C16A U46C U55C], 7.09e-05 ± 1.6e-05 s⁻¹; under AUAAAAGCGCCAGAGCUACAGAAAUGUAGUUGACGAGGAGGAGGUUUGUCUAAUUUUCGGCGGAUGCCUCCAAA [A15G A48G G51U], below 1e-05 s⁻¹.
For AUAAAAGCGCCAUAACUACAGAAAUGUAGUGGACGAGGAGGAGGUUUAUCGAAUUUUCGGCGGGUGCCUCCAAA [G13U U31G A64G] the value was 0.00021 ± 5.2e-05 s⁻¹.
Regarding AUAAAAGCGCCGGAACUACAGAAAUGUAGUUGACGAGGUGCAGGUUUAUCGAAUUUUCGGCGUAUGCCGCCAAA [A12G A39U G41C G63U U69G], the “self-cleavage kobs at 10000 uM GlcN6P” value is below 1e-05 s⁻¹.
Consider AUAAAAGCGCAAAAACUACAGAAAUGUAGUUUACGAGGAGGAGAUUUAGAGAAUUUUCGGCGGAUGCCUCCAAA [C11A G13A G32U G44A U49G C50A], for which the “self-cleavage kobs at 10000 uM GlcN6P” value is below 1e-05 s⁻¹.
Regarding AUAAAAGCGCCAGAAAUACAGAAAUGUAGUUGACGAGGAGGAGGUUUAUCGAAUUUAGCUCGGAUACCUCCAAA [C16A U57A C58G G59C G60U G66A], the “self-cleavage kobs at 10000 uM GlcN6P” value is below 1e-05 s⁻¹.
For AUAAAAGCGCCAGAAUUACAGAAAUGUAGUUGGCGAGGUGGAGGUUUAUCGAAUUUUCGGCGGAUGCCUCCAAA [C16U A33G A39U] the value was below 1e-05 s⁻¹; for AUAAAAGCGCCCGAACUACAGAAAUGUAGUUGACGAGGUGGAGGUUUCUCGAAUUUUCGGCGGAUGCCUCCAAA [A12C A39U A48C], 4.14e-05 ± 1e-05 s⁻¹; for AUAAAAGCGCCAGCACUACAGAAAUGUAGUGGACGAGGUGUAGGUUAAUCGAAUUUUCGUCGGAUGCCUCCAAA [A14C U31G A39U G41U U47A G60U], below 1e-05 s⁻¹.
Under AUAAAAGCGCCCGAACUACAGAAAUGUAGUUGACGAGGAGGAGUUUUAUCGAAUUUUGGGCGGAUGCCUCCAAA [A12C G44U C58G] stands below 1e-05 s⁻¹; under AUAAAAGCGCCAGAACUACAGAAAUGUAGCUGAUUAGGAGGAGGUUUAUCGAAUUUUCGGCGGAUGCCUCCAAA [U30C C34U G35U], below 1e-05 s⁻¹.
In the case of AUAAAAGCGCCUGAACUACAGAAAUGUAGUUGACGAGGAGGAGGUGUGUCGAAUUUUCGGCGGAUGCCUCCAAA [A12U U46G A48G], the “self-cleavage kobs at 10000 uM GlcN6P” value worked out at 9.42e-05 ± 2.1e-05 s⁻¹.
Under AUAAAAGCGCCUGAACUACAGAAAUGUAGUUGACGAGUAGGAGGUUUAUCGAAUUUUUGGCGGAUGCCUCCAAA [A12U G38U C58U] stands below 1e-05 s⁻¹.
